According to article PMC4336329 (PLoS ONE, 2015):
Out of some 310,000 compounds screened, about 2,200 (0.71%) showed an effect of 50% or more. The effect is printed as a negative number. The list shows a part of the results.

molecular target: human ether-à-go-go-related gene (hERG) potassium channel (human, UniProt Q12809); experiment: primary screen, population patch clamp on CHO cells stably expressing hERG
Sequence (Q12809 whole entry, looked up): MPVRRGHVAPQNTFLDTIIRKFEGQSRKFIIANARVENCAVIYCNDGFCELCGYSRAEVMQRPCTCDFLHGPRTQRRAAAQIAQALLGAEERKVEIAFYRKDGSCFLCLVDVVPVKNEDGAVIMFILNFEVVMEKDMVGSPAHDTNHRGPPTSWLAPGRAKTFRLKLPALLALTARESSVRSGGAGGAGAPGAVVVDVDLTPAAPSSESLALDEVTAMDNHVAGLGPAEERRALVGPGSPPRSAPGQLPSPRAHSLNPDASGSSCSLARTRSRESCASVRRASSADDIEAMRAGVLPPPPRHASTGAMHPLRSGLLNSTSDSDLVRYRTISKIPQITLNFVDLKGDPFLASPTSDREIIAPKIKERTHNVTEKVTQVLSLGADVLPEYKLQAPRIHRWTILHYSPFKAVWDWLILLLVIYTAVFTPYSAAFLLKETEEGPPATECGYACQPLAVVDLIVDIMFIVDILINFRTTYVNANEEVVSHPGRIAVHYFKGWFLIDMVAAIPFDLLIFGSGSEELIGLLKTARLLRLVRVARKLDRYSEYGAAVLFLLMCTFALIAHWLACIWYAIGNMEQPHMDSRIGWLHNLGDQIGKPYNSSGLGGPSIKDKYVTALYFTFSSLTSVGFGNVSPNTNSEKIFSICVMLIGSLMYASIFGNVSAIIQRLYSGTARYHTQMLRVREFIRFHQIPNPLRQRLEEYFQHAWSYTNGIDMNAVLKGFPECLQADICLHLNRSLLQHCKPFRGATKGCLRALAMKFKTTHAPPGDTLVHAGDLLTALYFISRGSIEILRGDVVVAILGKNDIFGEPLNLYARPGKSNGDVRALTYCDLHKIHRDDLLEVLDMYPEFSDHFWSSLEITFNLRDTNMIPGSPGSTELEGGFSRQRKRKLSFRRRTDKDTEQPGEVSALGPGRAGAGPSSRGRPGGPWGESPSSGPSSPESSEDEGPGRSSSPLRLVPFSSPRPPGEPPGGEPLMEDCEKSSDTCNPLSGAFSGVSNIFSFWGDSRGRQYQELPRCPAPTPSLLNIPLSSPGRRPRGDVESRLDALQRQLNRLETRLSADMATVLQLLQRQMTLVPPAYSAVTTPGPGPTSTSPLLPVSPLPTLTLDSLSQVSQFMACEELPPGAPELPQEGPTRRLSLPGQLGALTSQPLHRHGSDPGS

Row | Structure (SMILES) | hERG current change (%, negative = inhibition) at 1uM [%]
1 | Cn1c(=O)c2c(nc(NCC(O)CO)n2CCc2ccccc2)n(C)c1=O (stereo not drawn) | 7.57
2 | Nc1nc(CSCCO)nc(Nc2ccccc2)n1 | 8.26
3 | COc1ccc(F)cc1S(=O)(=O)N1CCCN(S(=O)(=O)c2cc(F)ccc2OC)CC1 | 7.98
4 | Cc1cc(Cl)c(S(=O)(=O)N(C)C)cc1OCC(N)=O | 11.8
5 | O=C(Nc1ccc(C(=O)O)cc1)/C(=C\c1ccco1)NC(=O)c1ccc(Br)o1 | 4.99
6 | O=C(N=C1SC2CS(=O)(=O)CC2N1c1ccccc1F)C1CCCCC1 (stereo not drawn) | 16.6
7 | Cc1oc(S(=O)(=O)N(C)C)cc1C(=O)Nc1ccc(Cl)cc1 | 16.7
8 | O=c1[nH]c(=O)n(Cc2ccc(F)cc2)c(O)c1C=Nc1ccc(Cl)cc1 | 10.5
9 | CC(c1ccccc1)N1CC(C(=O)Nc2ccc(F)cc2)CC1=O (stereo not drawn) | 8.67
10 | CCOc1cc(C(=O)Nc2c3c(nn2C(C)(C)C)CS(=O)C3)cc(OCC)c1OCC (stereo not drawn) | 4.2
11 | CCN1C(=O)/C(=C2/C=Cc3ccccc3N2CC)SC1=S | 5.2
12 | COC(=O)CCS(=O)(=O)c1ccc(Cl)cc1 | 11.9
13 | CC(C)CC(c1nnnn1C1CCCCC1)N1CCN(C(=O)c2ccco2)CC1.Cl (stereo not drawn) | -11.3
14 | Cc1nonc1NC(=O)CSc1nnc(N)s1 | 2.97
15 | CCOC(=O)C1CCN(C(=O)COc2ccc(S(=O)(=O)NC(C)(C)C)cc2)CC1 | 7.89
16 | CCc1ccc(/C=N/NC(=S)NCCc2ccccc2)cc1 | 6.19
17 | COc1cccc(CNC(=O)CCS(=O)(=O)c2ccc3c(c2)NC(=O)CO3)c1 | 6.65
18 | CSc1nc(-c2ccccc2)[nH]c(=S)c1C(C)=O | 8.7
19 | COc1ccc(/C(C)=N\NC(=O)CNC(=O)C(c2ccccc2)c2ccccc2)cc1OC | 18.8
20 | CC(C)Nc1nnc(SCC(=O)Nc2ccc3c(c2)C(=O)c2ccccc2C3=O)s1 | 4.05
21 | CC(C)CNC(=S)NNC(=O)CC(C)O (stereo not drawn) | -3.23
22 | Cc1nn(-c2nc3ccccc3s2)c(N)c1-c1ccccc1 | 9.3
23 | Cn1c(=O)c2c(n(Cc3ccccc3)c1=O)NC(=O)C2CC(=O)O (stereo not drawn) | 11.2

Row | Structure (SMILES) | hERG current change (%, negative = inhibition) at 1uM [%]
24 | CCc1nnc(NC(=O)c2ccc(S(=O)(=O)N3CCCc4ccccc43)cc2)o1 | 27.1
25 | CCCCSc1nnc(-c2ccccc2NC(C)=O)c(=O)[nH]1 | 11.3
26 | CCc1ccc(-c2cc(C(=O)Nc3c(C)n(C)n(-c4ccccc4)c3=O)c3ccccc3n2)s1 | 4.82
27 | COc1ccc(Br)cc1S(=O)(=O)NCCCN1CCOCC1 | 9.27
28 | Cc1cc(C)nc(NC(=O)c2ccc(C)c(C)c2)n1 | 15.8
29 | COc1ccc(-n2cc(-c3ccccc3)c3c(NCCOCCO)ncnc32)cc1 | 11.1
30 | N#Cc1c(-c2cccc(Br)c2)cc(-c2cccnc2)nc1N | 8.03
31 | O=C(CNC(=O)N1CC(=O)Nc2ccccc21)NCc1ccccc1Cl | 14.1
32 | COc1ccccc1NC(=S)N/N=C1\CC(C)(C)Oc2ccc(O)cc21 | 4.73
33 | Cc1cc(C)cc(N(C(=O)c2sc(C)nc2C)C(C(=O)NC(C)(C)C)c2ccncc2)c1 (stereo not drawn) | 32.7
34 | COc1ccccc1Oc1c(C)oc2cc(OC(=O)N(C)C)ccc2c1=O | 9.22
35 | Cc1nn(-c2cccc(C(F)(F)F)c2)c(=O)c2ccccc12 | 14.4
36 | Cl.O=C(CN1CCCC1)N1c2ccccc2Sc2ccc(Cl)cc21 | 8.51
37 | Cc1ccc(CNC(=O)/C=C/c2c(Cl)cccc2Cl)cc1 | 9.88
38 | Cc1cccc(C2=NCC(=O)N(CC(=O)NCc3ccco3)c3sc4c(c32)CCCC4)c1 | 9.72
39 | CC(C)N1C(=O)CCC1C(=O)NCc1cccs1 (stereo not drawn) | 14.2
40 | COc1cc(C2C(C#N)=C(N)N(c3ccc(F)cc3)C3=C2S(=O)(=O)CC3)ccc1O (stereo not drawn) | 13
41 | O=c1[nH]c(SCc2cccc([N+](=O)[O-])c2)nc2[nH]ncc12 | -1.4
42 | O=C(NCc1cccc(F)c1)C1CCC(=O)N(C2CCCC2)C1 (stereo not drawn) | 3.7
43 | O=Cc1cc([N+](=O)[O-])ccc1N1CCN(Cc2ccc3c(c2)OCO3)CC1 | -66.7
44 | Nc1ccc2nc(-c3ccc(Cl)cc3)[nH]c2c1 | 8.65
45 | COC(=O)c1ccc(N2CCN(C)CC2)c(NC(=O)COc2ccccc2)c1 | -7.22
